Hit rate of the full screen: of about 110,000 compounds, about 230 (0.21%) showed an effect of 50% or more. The list shows a part of the results.
These molecules were tested against DPAP1 (Plasmodium falciparum, UniProt Q8IIJ9) (assay: primary screen, percent inhibition; read by cleavage of a fluorogenic dipeptide substrate; higher = more effect of the substance).
Design: species or system P. falciparum D10 trophozoite lysates; single well
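Further: 30 min substrate incubation versus DMSO and 10 µM JCP410 controls.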

Sequence of DPAP1 (Q8IIJ9 whole entry, looked up): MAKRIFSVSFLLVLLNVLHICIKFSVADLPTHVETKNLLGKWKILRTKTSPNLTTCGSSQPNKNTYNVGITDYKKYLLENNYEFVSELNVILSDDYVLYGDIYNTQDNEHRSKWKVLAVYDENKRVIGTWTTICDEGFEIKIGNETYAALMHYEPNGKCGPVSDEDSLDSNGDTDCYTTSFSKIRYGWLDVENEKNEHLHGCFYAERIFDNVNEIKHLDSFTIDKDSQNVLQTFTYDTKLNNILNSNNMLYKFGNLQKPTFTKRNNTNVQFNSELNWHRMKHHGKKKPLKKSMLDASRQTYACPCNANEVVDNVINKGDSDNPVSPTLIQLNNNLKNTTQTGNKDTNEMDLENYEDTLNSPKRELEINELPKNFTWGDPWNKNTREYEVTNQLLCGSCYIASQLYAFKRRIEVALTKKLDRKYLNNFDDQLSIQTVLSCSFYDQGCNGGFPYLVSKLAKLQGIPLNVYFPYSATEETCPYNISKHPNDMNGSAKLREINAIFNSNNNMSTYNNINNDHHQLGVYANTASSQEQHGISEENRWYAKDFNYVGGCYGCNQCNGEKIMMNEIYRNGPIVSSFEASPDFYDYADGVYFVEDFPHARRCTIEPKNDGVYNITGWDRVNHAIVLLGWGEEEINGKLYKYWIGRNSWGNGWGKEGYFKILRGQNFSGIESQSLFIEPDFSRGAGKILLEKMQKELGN

Compared with `Cc1ccc(NC(=O)CN2C(=O)c3ccccc3C2=O)c(C(=O)O)c1`, `N#C/C(=C(/O)CCN1C(=O)c2ccccc2C1=O)c1nc2ccccc2[nH]1` is higher in “% Inhibition @ 10 uM” value: 3.8% for the first, 4.86% for the second.

Compared with `CC(C)Cc1ccc(C(C)C(=O)Nc2ccc(/C=C/c3ccccc3)cc2)cc1` (stereo not shown), `O=C(Nc1cccc(NS(=O)(=O)c2ccc(Cl)cc2)c1)c1ccccc1` is lower in “% Inhibition @ 10 uM” value: 4.54% for the first, -1.61% for the second.

First: O=C(Nc1ccc2nc(O)nc(-c3ccccc3)c2c1)C(F)(F)F
Second: CC(=O)c1cccc(Nc2nc(-c3c(C)nc4ccccn34)cs2)c1
The “% Inhibition @ 10 uM” value of the first is lower: -2.28% for the first, 1.15% for the second.

Going from `CCCN(CCC)S(=O)(=O)c1ccc(NC(C)=O)cc1` to `CCNC(=O)CCc1ccc(S(=O)(=O)NCC(C)C)cc1`, the “% Inhibition @ 10 uM” value falls from 2.6% to -2.83%.

Going from `CN(c1nnc(NC(=O)NC23C[C@H]4C[C@@H](C2)C[C@@H](C3)C4)s1)C1CCCCC1` to `CC1=C(c2ccc(C)cc2)S(=O)(=O)N=C1NC(C)C12CC3CC(CC(C3)C1)C2` (stereo not shown), the “% Inhibition @ 10 uM” value rises from -3.08% to 2.27%.

Going from `COc1ccc(C2=NN(C(C)=O)C(c3ccccc3F)C2)cc1` (stereo not shown) to `CCOC(=O)c1c(-c2ccccc2)csc1NC(=O)c1cc(-c2ccc(OC)cc2)on1`, the “% Inhibition @ 10 uM” value rises from -4.7% to 2.65%.

Going from `C=C(C)Cn1c(NCCC)nc2c1c(=O)n(C)c(=O)n2C` to `CCOC(=O)c1c(C)c(C(=O)NC(C)CC)c(C)n1Cc1ccccc1` (stereo not shown), the “% Inhibition @ 10 uM” value falls from 0.343% to -5.27%.

Going from `O=C(c1cc2nc(-c3ccco3)cc(C(F)(F)F)n2n1)N1CCN(c2ccc(F)cc2)CC1` to `Nc1nc2nc(-c3ccco3)cc(C(F)(F)F)n2n1`, the “% Inhibition @ 10 uM” value rises from 1.72% to 2.05%.

Going from `Cc1ccc(C2C(C(=O)c3ccc(OC(C)C)cc3)=C(O)C(=O)N2Cc2cccnc2)cc1` (stereo not shown) to `Cc1cccc(S(=O)(=O)Nc2ccc(-c3cn4cccc(C)c4n3)cc2)c1`, the “% Inhibition @ 10 uM” value rises from -9.98% to -0.545%.

Compared with `CN(C(=O)CCNS(=O)(=O)c1ccc2nc(O)ccc2c1)C1CCCCC1`, `Cc1nn(-c2ccccc2)c2sc(C(=O)NC3CCCCC3)cc12` is higher in “% Inhibition @ 10 uM” value: -4.93% for the first, 3% for the second.

Compared with `O=C(NCCc1ccccn1)c1nc(-c2ccc(-n3cccc3)cc2)no1`, `NC(=O)COc1ccc(-c2noc(COc3cccc(Cl)c3)n2)cc1` is lower in “% Inhibition @ 10 uM” value: -2.05% for the first, -5.11% for the second.

First: COc1ccccc1C1=N/C(=C\c2cccnc2)C(=O)O1
Second: CC(=O)NC1=NC(=O)/C(=C/c2cccc(Oc3ccccc3)c2)S1
The “% Inhibition @ 10 uM” value of the first is higher: 7.46% for the first, 6.22% for the second.

Compared with `Cc1nn(-c2ccccc2)c(-n2cccc2)c1C(=O)NCCCN1CCCC1=O`, `Cc1[nH]c2ccccc2c1C(=O)CN1CCN(c2ccccn2)CC1` is higher in “% Inhibition @ 10 uM” value: -1.8% for the first, 0.032% for the second.

Going from `CC(C)CC(C(=O)NCC#N)c1cccc(-c2ccc(S(=O)(=O)N3CCN(CC(F)(F)F)CC3)cc2)c1` (stereo not shown) to `COc1ccc(S(=O)(=O)Nc2ccc(S(=O)(=O)N3CCCCC3)cc2)c(Cl)c1Cl`, the “% Inhibition @ 10 uM” value rises from -4.72% to -4.7%.

First: N#CC1=C(N)N(c2nc[nH]n2)C2=C(C(=O)CCC2)C1c1ccccc1Cl (stereo not shown)
Second: O=C(COc1ccc(C2C3=C(CCCC3=O)OC3=C2C(=O)CCC3)cc1Cl)Nc1ccccc1
The “% Inhibition @ 10 uM” value of the first is lower: -1.98% for the first, -1.44% for the second.

Compared with `Cc1nnc(SCCCC(=O)c2ccc(C(C)(C)C)cc2)s1`, `COc1ccc2nc(NC(=O)c3nc(SC)ncc3Cl)sc2c1` is lower in “% Inhibition @ 10 uM” value: 5.7% for the first, -1.11% for the second.

Going from `CNS(=O)(=O)c1ccc2c(O)cc(S(=O)(=O)NC)cc2c1` to `COc1ccc(C(=O)Nc2ccc(C)c(Cl)c2)cc1[N+](=O)[O-]`, the “% Inhibition @ 10 uM” value rises from -2.56% to 4.6%.

First: CC(NS(=O)(=O)c1ccc(Br)cc1)c1ccccc1 (stereo not shown)
Second: CCN1C(=O)CS/C1=C(\C#N)S(=O)(=O)c1ccccc1
The “% Inhibition @ 10 uM” value of the first is lower: 2.13% for the first, 5.44% for the second.

First: OC1CCCN(C2CCN(Cc3ccccc3)CC2)C1 (stereo not shown)
Second: O=C(c1cc2c(Cl)nc3ccccc3c2s1)N1CCC(N2CCCCC2)CC1
The “% Inhibition @ 10 uM” value of the first is lower: 2.1% for the first, 4.95% for the second.

Compared with `CCN(CC)CCNC(=O)Cn1cccc1C(=O)c1ccccc1`, `COc1ccc(CCNC(=O)Cc2ccc3c(c2CO)OCO3)cc1OC` is lower in “% Inhibition @ 10 uM” value: 2.76% for the first, -3.87% for the second.

Going from `COc1ccc(S(=O)(=O)N2CCc3ccccc3C2)c(C)c1C` to `O=C(Nc1nnc(-c2ccccc2)s1)c1ccc(Cl)c(S(=O)(=O)N2CCOCC2)c1`, the “% Inhibition @ 10 uM” value rises from -1.33% to 1.55%.

Compared with `O=C(Nc1c(C(=O)N2CCN(Cc3ccccc3)CC2)cnn1-c1ccccc1Cl)c1ccco1`, `O=C(c1ccco1)N1CCN(C(=O)c2ccc(CS(=O)Cc3ccccc3Cl)o2)CC1` (stereo not shown) is higher in “% Inhibition @ 10 uM” value: -1.52% for the first, -0.434% for the second.

Going from `C=CCOC(=O)C1=C(C)N=C2CC(C)(C)CC(O)=C2C1c1ccccc1Cl` (stereo not shown) to `COC(=O)/C(C#N)=C/c1c(Oc2ccc(Cl)c(C)c2)nc2ccccn2c1=O`, the “% Inhibition @ 10 uM” value falls from 5.37% to -0.828%.

Going from `C/N=C/c1sc2ccccc2c1O` to `O=C1NC(=O)C(C2c3c(O)nc(O)nc3Oc3ccc4ccccc4c32)C(=O)N1` (stereo not shown), the “% Inhibition @ 10 uM” value falls from 23.9% to -2.32%.

Compared with `COc1ccc(N2CCN(Cc3cc(Br)c(O)c(OC)c3)CC2)cc1`, `Brc1cccc(CN2CCN(C/C=C/c3ccccc3)CC2)c1` is higher in “% Inhibition @ 10 uM” value: -6.47% for the first, 0.847% for the second.

Compared with `COc1ccc(NC(=O)COc2cc(C)ccc2C(C)C)cc1`, `CCCOc1ccc(N2CC(C(=O)NC(C)C)CC2=O)cc1` (stereo not shown) is higher in “% Inhibition @ 10 uM” value: -5.45% for the first, -1.84% for the second.

First: Cc1cc(C)c(C)c(OCCCCN2CCCC2)c1
Second: Cc1ccc(-c2ccc(=O)n(CC(=O)NC3CCCCC3C)n2)cc1 (stereo not shown)
The “% Inhibition @ 10 uM” value of the first is lower: 1.35% for the first, 5.35% for the second.

First: O=C(NCc1ccc2c(c1)OCO2)c1ccc(CS(=O)c2ccccc2Cl)o1 (stereo not shown)
Second: Cc1noc(C(=O)N2CCN(Cc3ccc4c(c3)OCO4)CC2)c1Cl
The “% Inhibition @ 10 uM” value of the first is higher: 5.41% for the first, 1.62% for the second.

First: O=C(Nc1ccccc1F)[C@@H]1C2C=CC(C2)[C@@H]1C(=O)O (stereo partly shown)
Second: N#Cc1ccccc1S(=O)(=O)N1CCCC(c2nc(O)c3nnn(Cc4ccc(F)cc4)c3n2)C1 (stereo not shown)
The “% Inhibition @ 10 uM” value of the first is lower: -8.15% for the first, -1.31% for the second.

First: COc1ccc(Br)cc1CNC(=O)C1CCCN(c2nn3c(=O)cc(C)nc3s2)C1 (stereo not shown)
Second: O=C(NCCC1=CCCCC1)C1CCC(CNS(=O)(=O)c2cccc3nsnc23)CC1 (stereo not shown)
The “% Inhibition @ 10 uM” value of the first is higher: 6.06% for the first, 1.26% for the second.

With `FC(F)(F)c1cccc(CN2CCOCC2)c1` the “% Inhibition @ 10 uM” value was 0.217%.
